Measurements as given in article PMC4005673.
Positions count from the first letter of the chain named. Names and notes keep the numbering of the source. No constants are given. Whether binding was seen depends on the method and setting. For part of these data: In cells and extracts the contact can be indirect. Some binding calls cover weakened binding; strength is not graded here. Blank lines part the entries; values can stand above or below the molecule they belong to.

Sequences of proteins named here, by UniProt entry; tags and fusion partners are left off.
UniProt P12956: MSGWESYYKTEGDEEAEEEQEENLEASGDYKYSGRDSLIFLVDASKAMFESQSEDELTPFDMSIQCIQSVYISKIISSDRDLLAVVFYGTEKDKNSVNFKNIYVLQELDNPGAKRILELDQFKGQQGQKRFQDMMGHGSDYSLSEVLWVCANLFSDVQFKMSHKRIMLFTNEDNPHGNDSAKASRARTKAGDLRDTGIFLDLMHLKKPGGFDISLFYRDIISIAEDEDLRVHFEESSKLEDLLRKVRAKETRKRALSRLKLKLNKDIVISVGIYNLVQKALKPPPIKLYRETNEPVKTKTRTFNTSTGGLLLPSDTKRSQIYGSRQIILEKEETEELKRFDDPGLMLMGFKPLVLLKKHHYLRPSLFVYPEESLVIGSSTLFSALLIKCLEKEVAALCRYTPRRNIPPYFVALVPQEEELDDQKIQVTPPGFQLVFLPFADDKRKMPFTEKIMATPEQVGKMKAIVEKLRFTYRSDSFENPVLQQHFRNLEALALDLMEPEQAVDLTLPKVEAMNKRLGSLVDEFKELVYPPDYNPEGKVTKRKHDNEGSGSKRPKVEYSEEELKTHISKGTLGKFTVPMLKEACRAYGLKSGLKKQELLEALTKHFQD
UniProt P13010: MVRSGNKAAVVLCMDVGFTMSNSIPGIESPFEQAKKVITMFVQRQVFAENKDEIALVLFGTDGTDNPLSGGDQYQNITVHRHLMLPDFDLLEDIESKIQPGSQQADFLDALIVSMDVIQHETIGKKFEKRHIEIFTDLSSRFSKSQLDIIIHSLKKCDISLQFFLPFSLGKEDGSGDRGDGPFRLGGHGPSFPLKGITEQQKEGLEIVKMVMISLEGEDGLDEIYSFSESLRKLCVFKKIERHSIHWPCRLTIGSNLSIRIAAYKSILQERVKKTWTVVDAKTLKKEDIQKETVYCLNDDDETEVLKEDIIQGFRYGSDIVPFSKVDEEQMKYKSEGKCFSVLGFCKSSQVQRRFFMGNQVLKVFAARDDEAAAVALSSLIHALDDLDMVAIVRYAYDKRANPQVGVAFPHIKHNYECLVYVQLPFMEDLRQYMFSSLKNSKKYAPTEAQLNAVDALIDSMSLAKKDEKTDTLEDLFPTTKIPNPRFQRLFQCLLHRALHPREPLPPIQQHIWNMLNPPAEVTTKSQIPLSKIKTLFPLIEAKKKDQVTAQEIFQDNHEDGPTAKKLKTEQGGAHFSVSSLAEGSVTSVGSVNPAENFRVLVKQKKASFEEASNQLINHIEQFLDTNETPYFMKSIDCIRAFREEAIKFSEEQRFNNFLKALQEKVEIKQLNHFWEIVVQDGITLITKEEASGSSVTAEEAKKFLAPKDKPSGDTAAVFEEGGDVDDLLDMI

Experiments:
[1] = target: T1, Kub5-Hera (K-H), endogenous (human (endogenous in HeLa and human foreskin fibroblasts)) (UniProt Q9NQG5); experiment: co-IP; nuclear extracts of shScr cells; K-H-specific antibody on Protein A/G beads; with and without ethidium bromide (5 uM); washed with NETN (0.1 M NaCl, 0.05% NP-40); western blot
T1 sequence: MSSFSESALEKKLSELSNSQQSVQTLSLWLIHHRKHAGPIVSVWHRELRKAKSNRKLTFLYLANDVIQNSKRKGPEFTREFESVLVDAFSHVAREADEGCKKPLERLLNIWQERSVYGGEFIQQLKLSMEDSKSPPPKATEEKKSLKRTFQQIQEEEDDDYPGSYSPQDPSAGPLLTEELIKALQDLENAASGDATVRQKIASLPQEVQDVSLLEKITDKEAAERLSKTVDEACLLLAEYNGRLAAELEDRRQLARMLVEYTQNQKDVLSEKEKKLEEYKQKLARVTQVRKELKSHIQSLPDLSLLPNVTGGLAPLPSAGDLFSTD

[2] = target: T1, Kub5-Hera (K-H), endogenous (human (endogenous in HeLa and human foreskin fibroblasts)); experiment: co-IP; co-IPs with the K-H-specific antibody after DNase treatment; data not shown
[3] = target: T1, Kub5-Hera (K-H), endogenous (human (endogenous in HeLa and human foreskin fibroblasts)); experiment: SEC; HeLa whole-cell extract (with turbonuclease) on Superose 6 HR 10/30 in 25 mM Tris-HCl pH 7.7, 100 mM NaCl, 5% glycerol, 1 mM DTT; fractions blotted for the indicated proteins; fractions 27-29 concentrated to see Artemis
[4] = target: Ku70 (UniProt P12956); experiment: two-hybrid; yeast two-hybrid; growth on selection media and beta-galactosidase activity; screen for Ku70-binding partners, deletion analyses and point mutant

Molecule: Ku86, endogenous (from UniProt P13010 1-732)
binding [3]: binds

B1: Ku70 binding protein #5-Hera (K-H) (protein, UniProt Q9NQG5 1-326)
chain: T1 sequence
binding [4]: binds

More lines, now with the values ahead:

binding [1]: binds
binding [2]: binds
binding [3]: binds
Molecule: Ku70, endogenous (from UniProt P12956 1-609)

binding [4]: no binding
B2: K-H L276A (protein, UniProt Q9NQG5 1-326)
chain: T1 sequence with L276A
